The supplement of paper PMC6135742
Several values for one entry are separate records, joined by “and”; a condition that tells them apart may be missing. Identical values can stand only once. Counter-ions that a name gives are not always drawn. ± gives the standard deviation of the averaged measurements. In all, about 2,600 compounds were measured (“MBP+ mature oligodendrocyte number relative to DMSO vehicle control”: median about -0.34, highest 2% from about 13 on). This is one part of the list.
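Note: 10 µM single dose with 3-day oligodendrocyte differentiation.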

These compounds were tested on jimpy (Plp1 jimpy) mouse iPSC-derived oligodendrocyte progenitor cells (assay: MBP+ mature oligodendrocyte number relative to DMSO vehicle control (SDs above negative control mean); higher = more surviving jimpy oligodendrocytes (rescue)). Details: 10 µM; 3 days.
`CN(C[C@@H]1COCCO1)S(=O)(=O)Nc1ccc2ccc3ncc(-c4cnn(C)c4)cc3c(=O)c2c1` was tested, and the “MBP+ mature oligodendrocyte number” value was -5.93. `COc1cccc(OC)c1OCCNCC1CSc2ccccc2O1` (configuration not stated) [Benoxathian hydrochloride] was tested, and the “MBP+ mature oligodendrocyte number” value was 2.16. For `O=C(CSc1nc2c(c(=O)n1-c1ccccc1)SCC2)Nc1ccc(-c2ccccc2)cn1`, the “MBP+ mature oligodendrocyte number” value was 1.84. With `CCC(C)(C)C(=O)O[C@H]1C[C@@H](C)C=C2C=C[C@H](C)[C@H](CC[C@@H]3C[C@@H](O)CC(=O)O3)[C@H]21` [Simvastatin] the “MBP+ mature oligodendrocyte number” value was < -5.15. For `CC(=O)Oc1ccc(C(c2ccc(OC(C)=O)cc2)c2ccccn2)cc1` [Bisacodyl], the “MBP+ mature oligodendrocyte number” value was 5.31. For `CCOC(=O)CC(=O)N1CCSC1COc1ccccc1OC` (configuration not stated) [Moguisteine], the “MBP+ mature oligodendrocyte number” value was 0.342. For `CCN1CCCC1CNC(=O)c1cc(S(N)(=O)=O)ccc1OC` (single isomer, unassigned; (-)) [(-)-Sulpiride], the “MBP+ mature oligodendrocyte number” value was -0.604. `CN1CCN2c3ccccc3Cc3ccccc3C2C1` (configuration not stated) [Mianserin HCl] was tested, and the “MBP+ mature oligodendrocyte number” value was -6.09. `CN1CCN2c3ccccc3Cc3ccccc3C2C1` (configuration not stated) [Mianserin hydrochloride] was tested, and the “MBP+ mature oligodendrocyte number” value was -3.42. `CCCCCCCCOc1ccccc1C(=O)Nc1ccc(C(=O)OCC[N+](C)(CC)CC)cc1` [Otilonium Bromide] was tested, and the “MBP+ mature oligodendrocyte number” value was 3.2. With `N[C@@H](Cc1ccc(O)c(O)c1)C(=O)O` [L-3,4-Dihydroxyphenylalanine] the “MBP+ mature oligodendrocyte number” value was 0.293. `CCCCc1ncc(/C=C(\Cc2cccs2)C(=O)O)n1Cc1ccc(C(=O)O)cc1` [Eprosartan Mesylate] was tested, and the “MBP+ mature oligodendrocyte number” value was -1.37. For `CCCCc1ncc(/C=C(\Cc2cccs2)C(=O)O)n1Cc1ccc(C(=O)O)cc1` [Eprosartan mesylate], the “MBP+ mature oligodendrocyte number” value was -0.206. With `CCc1ccc(OCc2ccccc2C(=O)Nc2ccc3nc(C)cc(N)c3c2)cc1` the “MBP+ mature oligodendrocyte number” value was < -6.01. In the case of `CN(C)CCc1c[nH]c2ccc(CS(=O)(=O)N3CCCC3)cc12` [Almotriptan Malate], the “MBP+ mature oligodendrocyte number” value is reported as 1.07. For `Cn1nc(C(C)(C)C)cc1C(=O)N[C@@H](Cc1cccc(Cl)c1)C(=O)NCC#N` [Cathepsin Inhibitor 1], the “MBP+ mature oligodendrocyte number” value was -0.61. With `CN(c1ncccc1CNc1nc(Nc2ccc3c(c2)CC(=O)N3)ncc1C(F)(F)F)S(C)(=O)=O` the “MBP+ mature oligodendrocyte number” value was < -6.01 and -6.1. `CC(CNC(=O)c1cccnc1)NC(=O)c1cccnc1` (configuration not stated) [Nicaraven] was tested, and the “MBP+ mature oligodendrocyte number” value was 1.84. `O=C(Nc1ccccc1)N1CCN(c2nc(-c3ccccc3)ns2)CC1` was tested, and the “MBP+ mature oligodendrocyte number” value was 7.25. For `O=C(NC(Cc1cc(=O)[nH]c2ccccc12)C(=O)O)c1ccc(Cl)cc1` (configuration not stated) [Rebamipide], the “MBP+ mature oligodendrocyte number” value was -0.377. In the case of `CCN1C(=O)C=CC1=O` [N-Ethylmaleimide], the “MBP+ mature oligodendrocyte number” value is reported as -0.073. In the case of `CC(C)c1cc(C(C)C)c(CC(=O)NS(=O)(=O)Oc2c(C(C)C)cccc2C(C)C)c(C(C)C)c1` [Avasimibe], the “MBP+ mature oligodendrocyte number” value is reported as 0.731. For `O=C(NNc1nc2cc(F)ccc2n2cccc12)c1cnccn1`, the “MBP+ mature oligodendrocyte number” value was < -6.35. For `C[N+](C)(C)CCOC(N)=O` [Carbachol], the “MBP+ mature oligodendrocyte number” value was -0.236. With `COC(=O)/C=C/C(=O)OC` [Dimethyl Fumarate] the “MBP+ mature oligodendrocyte number” value was -0.612. With `CCOC(=O)C1=C(C)NC(C)=C(C(=O)OC)C1c1cccc(Cl)c1Cl` (configuration not stated) [Felodipine] the “MBP+ mature oligodendrocyte number” value was 9.79 ± 0.78. In the case of `Cc1nc2sccn2c(=O)c1CCN1CCC(=C(c2ccc(F)cc2)c2ccc(F)cc2)CC1` [Ritanserin], the “MBP+ mature oligodendrocyte number” value is reported as 2.29. With `O=C1c2c(O)ccc(O)c2C(=O)c2c(NCCNCCO)ccc(NCCNCCO)c21` [Mitoxantrone HCl] the “MBP+ mature oligodendrocyte number” value was < -4.81. With `O=C1c2c(O)ccc(O)c2C(=O)c2c(NCCNCCO)ccc(NCCNCCO)c21` [Mitoxantrone] the “MBP+ mature oligodendrocyte number” value was < -3.97. In the case of `CCOC(=O)c1ccc(NC2CCCCC2)c(N)c1` [Ferrostatin-1 (Fer-1)], the “MBP+ mature oligodendrocyte number” value is reported as 5.47. `CCOC(=O)c1ccc(NC2CCCCC2)c(N)c1` [Ferrostatin-1] was tested, and the “MBP+ mature oligodendrocyte number” value was 3.81. In the case of `Cc1ccc(Nc2nccc(N(C)c3ccc4c(C)n(C)nc4c3)n2)cc1S(N)(=O)=O` [Pazopanib], the “MBP+ mature oligodendrocyte number” value is reported as -2.91. In the case of `Cc1ccc(Nc2nccc(N(C)c3ccc4c(C)n(C)nc4c3)n2)cc1S(N)(=O)=O`, the “MBP+ mature oligodendrocyte number” value is reported as -1.72. For `CCc1ccc(/C=C2/SC(=S)NC2=O)cc1`, the “MBP+ mature oligodendrocyte number” value was 1.19 ± 1.6. `CCCCC(=O)N(Cc1ccc(-c2ccccc2-c2nnn[nH]2)cc1)[C@H](C(=O)O)C(C)C` [Valsartan] was tested, and the “MBP+ mature oligodendrocyte number” value was -0.557. With `COc1cc(Nc2ncc3c(n2)-c2ccc(Cl)cc2C(c2c(F)cccc2OC)=NC3)ccc1C(=O)O` [Alisertib (MLN8237)] the “MBP+ mature oligodendrocyte number” value was -3.03. In the case of `C=CCNc1ncnc2ccc(Br)cc12`, the “MBP+ mature oligodendrocyte number” value is reported as -1.35. With `CCOC(CN1CCN(CC(C)C(=O)c2ccccc2)CC1)c1ccccc1` (configuration not stated) [Eprazinone 2HCl] the “MBP+ mature oligodendrocyte number” value was 4.71. For `OCC(CO)N[C@H]1C[C@](O)(CO)[C@@H](O)[C@H](O)[C@H]1O` [Voglibose], the “MBP+ mature oligodendrocyte number” value was 1.08. In the case of `O=C(O)c1cc(=O)c2ccccc2[nH]1` [Kynurenic acid], the “MBP+ mature oligodendrocyte number” value is reported as 2.3. `Cc1cnc(NC(=O)Nc2cc(Br)c(C)cc2OC[C@@H]2CNCCO2)cn1` was tested, and the “MBP+ mature oligodendrocyte number” value was < -6.01. In the case of `Cc1c(C(=O)Nc2ccc(N3C[C@@H](C)O[C@@H](C)C3)nc2)cccc1-c1ccc(OC(F)(F)F)cc1` [LDE225 (NVP-LDE225,Erismodegib)], the “MBP+ mature oligodendrocyte number” value is reported as -2.74. With `Nc1cc(C(F)(F)F)c(-c2cc(N3CCOCC3)nc(N3CCOCC3)n2)cn1` [BKM120 (NVP-BKM120, Buparlisib)] the “MBP+ mature oligodendrocyte number” value was -4.7. `CC(C)NNC(=O)c1ccncc1` [Iproniazid phosphate] was tested, and the “MBP+ mature oligodendrocyte number” value was -0.245. For `Cc1ccc(Sc2cncc3sc(C(N)=O)cc23)cc1`, the “MBP+ mature oligodendrocyte number” value was 1.14. With `CN1c2ccccc2C(=O)N2CCc3c([nH]c4ccccc34)C21` (stereo in doubt) [Evodiamine] the “MBP+ mature oligodendrocyte number” value was -2.4. With `O=c1cc(N2CCOCC2)oc2c(-c3ccccc3)cccc12` the “MBP+ mature oligodendrocyte number” value was -0.153. `O=c1cc(N2CCOCC2)oc2c(-c3ccccc3)cccc12` [LY-294,002 hydrochloride] was tested, and the “MBP+ mature oligodendrocyte number” value was -1.77. In the case of `CN1C(C(=O)Nc2ccccn2)=C(O)c2sc(Cl)cc2S1(=O)=O` [Lornoxicam], the “MBP+ mature oligodendrocyte number” value is reported as 0.433. For `CC12CC3CC(C)(C1)CC(N)(C3)C2` [Memantine hydrochloride], the “MBP+ mature oligodendrocyte number” value was -0.206. `CC12CC3CC(C)(C1)CC(N)(C3)C2` [Memantine HCl] was tested, and the “MBP+ mature oligodendrocyte number” value was 0.433. `Cc1ccc(CNc2ncnc3ccc(-c4ccc(CO)o4)cc23)o1` was tested, and the “MBP+ mature oligodendrocyte number” value was -0.386. In the case of `COc1ccc(-c2cc(=O)c3c(OC)c(OC)c(OC)c(OC)c3o2)cc1` [Tangeretin], the “MBP+ mature oligodendrocyte number” value is reported as -4.14. In the case of `O=C(O)c1ccc(C=C2SC(=S)N(c3cccc(C(F)(F)F)c3)C2=O)cc1`, the “MBP+ mature oligodendrocyte number” value is reported as 2.43. For `CC(C)c1nc(CN(C)C(=O)N[C@@H](CCN2CCOCC2)C(=O)N[C@H](CC[C@H](Cc2ccccc2)NC(=O)OCc2cncs2)Cc2ccccc2)cs1` [Cobicistat (GS-9350)], the “MBP+ mature oligodendrocyte number” value was -4.02. In the case of `C#C[C@]1(O)CC[C@H]2[C@@H]3CCC4=Cc5oncc5C[C@]4(C)[C@H]3CC[C@@]21C` [Danazol], the “MBP+ mature oligodendrocyte number” value is reported as 4.9. `Cc1cccc(-c2nn3c(c2-c2ccnc4ccc(C(N)=O)cc24)CCC3)n1` was tested, and the “MBP+ mature oligodendrocyte number” value was -2.18. For `O=C(Nc1cccnc1)N1CCC(Cc2cccc(Oc3ccc(C(F)(F)F)cn3)c2)CC1` [PF 3845 hydrate], the “MBP+ mature oligodendrocyte number” value was 10.1. For `O=C(Nc1cccnc1)N1CCC(Cc2cccc(Oc3ccc(C(F)(F)F)cn3)c2)CC1`, the “MBP+ mature oligodendrocyte number” value was 19.5. For `O=C(Nc1ccc([N+](=O)[O-])cc1Cl)c1cc(Cl)ccc1O` [Niclosamide], the “MBP+ mature oligodendrocyte number” value was -2.83. In the case of `Cc1cc(C)nc(NS(=O)(=O)c2ccc(NC(=S)NC(=O)COc3ccc(Br)cc3Cl)cc2)n1`, the “MBP+ mature oligodendrocyte number” value is reported as -0.692. In the case of `O=c1cc[nH]c(=O)[nH]1` [Uracil], the “MBP+ mature oligodendrocyte number” value is reported as 1.5. In the case of `CCOC(=O)N1c2ccc(C(F)(F)F)cc2[C@@H](N(Cc2cc(C(F)(F)F)cc(C(F)(F)F)c2)C(=O)OC)C[C@H]1CC` [Torcetrapib], the “MBP+ mature oligodendrocyte number” value is reported as -0.372. With `Cc1ccc(C(=O)Nc2cccc(C(F)(F)F)c2)cc1Nc1nc(-c2cccnc2)nc2c1cnn2C` the “MBP+ mature oligodendrocyte number” value was < -4.81. With `COc1ccc(-c2cc(=O)c3c(OC)c(OC)c(OC)c(OC)c3o2)cc1OC` [Nobiletin] the “MBP+ mature oligodendrocyte number” value was -4.53. In the case of `CCC[C@@H]1C[C@@H](C(=O)N[C@@H]([C@H]2O[C@H](SC)[C@H](O)[C@@H](O)[C@H]2O)[C@@H](C)O)N(C)C1` [Lincomycin HCl], the “MBP+ mature oligodendrocyte number” value is reported as 2.41. In the case of `N#Cc1c(Oc2ccc(F)c(NC(=O)Cc3cccc(C(F)(F)F)c3)c2)ccc2nc(NC(=O)C3CC3)sc12`, the “MBP+ mature oligodendrocyte number” value is reported as -1.96. For `CO[C@H]1C[C@@H]2CC[C@@H](C)[C@@](O)(O2)C(=O)C(=O)N2CCCC[C@H]2C(=O)O[C@H]([C@H](C)C[C@@H]2CC[C@@H](OC(=O)C(C)(CO)CO)[C@H](OC)C2)CC(=O)[C@H](C)/C=C(\C)[C@@H](O)[C@@H](OC)C(=O)[C@H](C)C[C@H](C)/C=C/C=C/C=C/1C`, the “MBP+ mature oligodendrocyte number” value was -5.21. In the case of `CO[C@H]1C[C@@H]2CC[C@@H](C)[C@@](O)(O2)C(=O)C(=O)N2CCCC[C@H]2C(=O)O[C@H]([C@H](C)C[C@@H]2CC[C@@H](OC(=O)C(C)(CO)CO)[C@H](OC)C2)CC(=O)[C@H](C)/C=C(\C)[C@@H](O)[C@@H](OC)C(=O)[C@H](C)C[C@H](C)/C=C/C=C/C=C/1C` [Temsirolimus], the “MBP+ mature oligodendrocyte number” value is reported as -2.95. In the case of `NNC(=O)c1ccncc1` [Isoniazid], the “MBP+ mature oligodendrocyte number” value is reported as -0.197. For `CN(C(=O)CCCOc1ccc2[nH]c(=O)ccc2c1)C1CCCCC1` [Cilostamide], the “MBP+ mature oligodendrocyte number” value was 1.65. `COc1ccc(Br)cc1S(=O)(=O)NC(=O)/C=C/c1ccccc1Cc1ccc2ccccc2c1` was tested, and the “MBP+ mature oligodendrocyte number” value was 0.117. For `Cc1ccc(S(=O)(=O)OCC(=O)Nc2ccc(C(=O)O)c(O)c2)cc1`, the “MBP+ mature oligodendrocyte number” value was 2.29. For `C[C@H]1C[C@H]2[C@@H]3CCC4=CC(=O)C=C[C@]4(C)[C@H]3C(=O)C[C@]2(C)[C@@]1(O)C(=O)CO` [Meprednisone], the “MBP+ mature oligodendrocyte number” value was 0.433. `O=C(O)CCCN1CCC(O[C@@H](c2ccc(Cl)cc2)c2ccccn2)CC1` [Bepotastine Besilate] was tested, and the “MBP+ mature oligodendrocyte number” value was 0.739. For `O=C(Nc1ncc(SCCN2CCCC2)s1)[C@]1(c2ccc(S(=O)(=O)C3CC3)cc2)C[C@H]1C1CCCCC1`, the “MBP+ mature oligodendrocyte number” value was < -4.81. In the case of `O=C(O)c1cccnc1` [Nicotinic Acid], the “MBP+ mature oligodendrocyte number” value is reported as -0.287.
